Source: the supplement of paper PMC4604168 (melanoma cell lines)
This is one part of the list. Most values come without repeats; read them as rough.

Assays:
Experiment in all cases: cell count relative to DMSO control; melanoma cells; higher = more viable cells
Conditions in all cases: library dose: standard library concentration; 72 h
[1] = test system: 501Mel
[2] = test system: A101D
[3] = test system: A2058
[4] = test system: A375
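Further: cells treated in 1,536-well plates, then fixed and DAPI-stained, with nuclei counted from automated high-throughput microscope images.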

SMILES	cell count [1] [%]	cell count [2] [%]	cell count [3] [%]	cell count [4] [%]
CC1(C)CCC(c2ccc(Cl)cc2)=C(CN2CCN(c3ccc(C(=O)NS(=O)(=O)c4ccc(N[C@H](CCN5CCOCC5)CSc5ccccc5)c(S(=O)(=O)C(F)(F)F)c4)cc3)CC2)C1 + CCCCCCCCCCCC1=C(O)C(=O)C=C(O)C1=O [Embelin] (first compound 2 µM, partner dose 6 µM)	75.2	28.7	114	61.2
CC1(C)CCC(c2ccc(Cl)cc2)=C(CN2CCN(c3ccc(C(=O)NS(=O)(=O)c4ccc(N[C@H](CCN5CCOCC5)CSc5ccccc5)c(S(=O)(=O)C(F)(F)F)c4)cc3)CC2)C1 + COc1ccc(C2=N[C@@H](c3ccc(Cl)cc3)[C@@H](c3ccc(Cl)cc3)N2C(=O)N2CCNC(=O)C2)c(OC(C)C)c1 [Nutlin-3] (first compound 2 µM, partner dose 0.5 µM)		36.8	94.2	55
CC1(C)CCC(c2ccc(Cl)cc2)=C(CN2CCN(c3ccc(C(=O)NS(=O)(=O)c4ccc(N[C@H](CCN5CCOCC5)CSc5ccccc5)c(S(=O)(=O)C(F)(F)F)c4)cc3)CC2)C1 + c1cc(-c2cnn3cc(-c4ccc(OCCN5CCCCC5)cc4)cnc23)ccn1 [Dorsomorphin] (first compound 2 µM, partner dose 2 µM)	57.3	23.8	70.5	44
O=C(/C=C/c1cccnc1)NCCCCC1CCN(C(=O)c2ccccc2)CC1 + Cc1cn(-c2cc(NC(=O)c3ccc(C)c(Nc4nccc(-c5cccnc5)n4)c3)cc(C(F)(F)F)c2)cn1 [nilotinib] (first compound 0.05 µM, partner dose 1 µM)		86.6	102	121
CC1(C)CCC(c2ccc(Cl)cc2)=C(CN2CCN(c3ccc(C(=O)NS(=O)(=O)c4ccc(N[C@H](CCN5CCOCC5)CSc5ccccc5)c(S(=O)(=O)C(F)(F)F)c4)cc3)CC2)C1 + CCCS(=O)(=O)Nc1ccc(F)c(C(=O)c2c[nH]c3ncc(Cl)cc23)c1F [PLX4720] (first compound 2 µM, partner dose 0.4 µM)		48.6	87.3	63.6
O=C(/C=C/c1cccnc1)NCCCCC1CCN(C(=O)c2ccccc2)CC1 + Oc1nc(-c2ccc(C(F)(F)F)cc2)nc2c1CSCC2 [XAV939] (first compound 0.05 µM, partner dose 10 µM)	103	70.7	84.5	138
CC1(C)CCC(c2ccc(Cl)cc2)=C(CN2CCN(c3ccc(C(=O)NS(=O)(=O)c4ccc(N[C@H](CCN5CCOCC5)CSc5ccccc5)c(S(=O)(=O)C(F)(F)F)c4)cc3)CC2)C1 + O=C(Nc1ccccc1)c1cc([N+](=O)[O-])ccc1Cl [GW9662] (first compound 2 µM, partner dose 10 µM)	66.5	24.5	86.1	57.5
Cc1ccc(Nc2nccc(N(C)c3ccc4c(C)n(C)nc4c3)n2)cc1S(N)(=O)=O [Pazopanib] + C[C@]1(c2nc3c(C(N)=O)cccc3[nH]2)CCCN1 [Veliparib] (first compound 2 µM, partner dose 7 µM)		63.8	77.6	75.2
CC1(C)CCC(c2ccc(Cl)cc2)=C(CN2CCN(c3ccc(C(=O)NS(=O)(=O)c4ccc(N[C@H](CCN5CCOCC5)CSc5ccccc5)c(S(=O)(=O)C(F)(F)F)c4)cc3)CC2)C1 + CN(C)S(=O)(=O)c1ccc2c(c1)/C(=C/c1cc3c([nH]1)CCCC3)C(=O)N2 [SU6656] (first compound 2 µM, partner dose 2 µM)		24.5	84	62.3
O=C(/C=C/c1cccnc1)NCCCCC1CCN(C(=O)c2ccccc2)CC1 + C=CCn1c(=O)c2cnc(Nc3ccc(N4CCN(C)CC4)cc3)nc2n1-c1cccc(C(C)(C)O)n1 [MK1775] (first compound 0.05 µM, partner dose 0.1 µM)		51.7	89.6	63.5
CC1(C)CCC(c2ccc(Cl)cc2)=C(CN2CCN(c3ccc(C(=O)NS(=O)(=O)c4ccc(N[C@H](CCN5CCOCC5)CSc5ccccc5)c(S(=O)(=O)C(F)(F)F)c4)cc3)CC2)C1 + CCc1ccc(CCOc2ccc(CC3SC(=O)NC3=O)cc2)nc1 [pioglitazone] (first compound 2 µM, partner dose 10 µM)	83.5	46	91.3	68.5
CC1(C)CCC(c2ccc(Cl)cc2)=C(CN2CCN(c3ccc(C(=O)NS(=O)(=O)c4ccc(N[C@H](CCN5CCOCC5)CSc5ccccc5)c(S(=O)(=O)C(F)(F)F)c4)cc3)CC2)C1 + O=c1cc(-c2cccc3c2Sc2ccccc2S3)oc(N2CCOCC2)c1 [KU55933] (first compound 2 µM, partner dose 5 µM)	78.9	36.8	78.1	81.5
CC1(C)CCC(c2ccc(Cl)cc2)=C(CN2CCN(c3ccc(C(=O)NS(=O)(=O)c4ccc(N[C@H](CCN5CCOCC5)CSc5ccccc5)c(S(=O)(=O)C(F)(F)F)c4)cc3)CC2)C1 + NC(=O)Nc1cc(-c2cccc(F)c2)sc1C(=O)N[C@H]1CCCNC1 [AZD7762] (first compound 2 µM, partner dose 0.1 µM)		27.9	91.4	33.2
CC1(C)CCC(c2ccc(Cl)cc2)=C(CN2CCN(c3ccc(C(=O)NS(=O)(=O)c4ccc(N[C@H](CCN5CCOCC5)CSc5ccccc5)c(S(=O)(=O)C(F)(F)F)c4)cc3)CC2)C1 + Oc1cc(-c2nc(-c3ccccc3)[nH]c2-c2ccncc2)ccc1Cl [L779450] (first compound 2 µM, partner dose 1 µM)	71.3	29.8	87.7	63
O=C(/C=C/c1cccnc1)NCCCCC1CCN(C(=O)c2ccccc2)CC1 + COc1ccc(-c2ccc3c(N4CCOCC4)nc(N4C[C@@H](C)O[C@@H](C)C4)nc3n2)cc1CO [KU0063794] (first compound 0.05 µM, partner dose 0.1 µM)	74.1	71.9	91	105
Cc1ccc(Nc2nccc(N(C)c3ccc4c(C)n(C)nc4c3)n2)cc1S(N)(=O)=O [Pazopanib] + COc1cc(N2CCC(N3CCN(C)CC3)CC2)ccc1Nc1ncc(Cl)c(Nc2ccccc2S(=O)(=O)C(C)C)n1 [NVP-TAE684] (first compound 2 µM, partner dose 0.4 µM)	86.8	82.3	72.7	88
O=C(/C=C/c1cccnc1)NCCCCC1CCN(C(=O)c2ccccc2)CC1 + Cn1c(=O)n(-c2ccc(C(C)(C)C#N)cc2)c2c3cc(-c4cnc5ccccc5c4)ccc3ncc21 [NVP-BEZ235] (first compound 0.05 µM, partner dose 0.02 µM)		66.5	44	70.9
CC1(C)CCC(c2ccc(Cl)cc2)=C(CN2CCN(c3ccc(C(=O)NS(=O)(=O)c4ccc(N[C@H](CCN5CCOCC5)CSc5ccccc5)c(S(=O)(=O)C(F)(F)F)c4)cc3)CC2)C1 + NC1(c2ccc(-c3nc4ccn5c(=O)[nH]nc5c4cc3-c3ccccc3)cc2)CCC1 [MK2206] (first compound 2 µM, partner dose 2 µM)		32.4	78.5	54.5
CC1(C)CCC(c2ccc(Cl)cc2)=C(CN2CCN(c3ccc(C(=O)NS(=O)(=O)c4ccc(N[C@H](CCN5CCOCC5)CSc5ccccc5)c(S(=O)(=O)C(F)(F)F)c4)cc3)CC2)C1 + CS(=O)(=O)CCNCc1ccc(-c2ccc3ncnc(Nc4ccc(OCc5cccc(F)c5)c(Cl)c4)c3c2)o1 [lapatinib] (first compound 2 µM, partner dose 4 µM)		28.2	72.8	47.5
Cc1ccc(Nc2nccc(N(C)c3ccc4c(C)n(C)nc4c3)n2)cc1S(N)(=O)=O [Pazopanib] + O=C(Nc1ccccc1)c1cc([N+](=O)[O-])ccc1Cl [GW9662] (first compound 2 µM, partner dose 10 µM)	56.4	65.5	95.4	107
CC1(C)CCC(c2ccc(Cl)cc2)=C(CN2CCN(c3ccc(C(=O)NS(=O)(=O)c4ccc(N[C@H](CCN5CCOCC5)CSc5ccccc5)c(S(=O)(=O)C(F)(F)F)c4)cc3)CC2)C1 + COc1ccc(-c2ccc3c(N4CCOCC4)nc(N4C[C@@H](C)O[C@@H](C)C4)nc3n2)cc1CO [KU0063794] (first compound 2 µM, partner dose 0.1 µM)	95	44.8	91.6	92.5
Cc1ccc(Nc2nccc(N(C)c3ccc4c(C)n(C)nc4c3)n2)cc1S(N)(=O)=O [Pazopanib] + CCN(CC)CCCCNc1ncc2cc(-c3cc(OC)cc(OC)c3)c(NC(=O)NC(C)(C)C)nc2n1 [PD173074] (first compound 2 µM, partner dose 0.5 µM)	97.5	92.2	106	123
O=C(/C=C/c1cccnc1)NCCCCC1CCN(C(=O)c2ccccc2)CC1 + CCc1ccc(CCOc2ccc(CC3SC(=O)NC3=O)cc2)nc1 [pioglitazone] (first compound 0.05 µM, partner dose 10 µM)	67.9	98.1	85.6	123
